From PMC10965988, “PDGFRA K385 mutants in myxoid glioneuronal tumors promote receptor dimerization and oncogenic signaling” (Scientific Reports, 2024)

Biological target: the molecule itself
Experiment: co-IP; HEK293T co-transfected with HA- and MYC-tagged PDGFRα; lysis in RIPA buffer; immunoprecipitation with anti-HA overnight at 4 °C, Protein A/G resin; western blot with anti-MYC; in the absence of ligand

B1: platelet-derived growth factor receptor alpha (PDGFRα) K385L, HA- and MYC-tagged (receptor, UniProt P16234 24-1089, looked up)
chain: QLSLPSILPNENEKVVQLNSSFSLRCFGESEVSWQYPMSEEESSDVEIRNEENNSGLFVTVLEVSSASAAHTGLYTCYYNHTQTEENELEGRHIYIYVPDPDVAFVPLGMTDYLVIVEDDDSAIIPCRTTDPETPVTLHNSEGVVPASYDSRQGFNGTFTVGPYICEATVKGKKFQTIPFNVYALKATSELDLEMEALKTVYKSGETIVVTCAVFNNEVVDLQWTYPGEVKGKGITMLEEIKVPSIKLVYTLTVPEATVKDSGDYECAARQATREVKEMKKVTISVHEKGFIEIKPTFSQLEAVNLHEVKHFVVEVRAYPPPRISWLKNNLTLIENLTEITTDVEKIQEIRYRSKLKLIRALEEDSGHYTIVAQNEDAVKSYTFELLTQVPSSILDLVDDHHGSTGGQTVRCTAEGTPLPDIEWMICKDIKKCNNETSWTILANNVSNIITEIHSRDRSTVEGRVTFAKVEETIAVRCLAKNLLGAENRELKLVAPTLRSELTVAAAVLVLLVIVIISLIVLVVIWKQKPRYEIRWRVIESISPDGHEYIYVDPMQLPYDSRWEFPRDGLVLGRVLGSGAFGKVVEGTAYGLSRSQPVMKVAVKMLKPTARSSEKQALMSELKIMTHLGPHLNIVNLLGACTKSGPIYIITEYCFYGDLVNYLHKNRDSFLSHHPEKPKKELDIFGLNPADESTRSYVILSFENNGDYMDMKQADTTQYVPMLERKEVSKYSDIQRSLYDRPASYKKKSMLDSEVKNLLSDDNSEGLTLLDLLSFTYQVARGMEFLASKNCVHRDLAARNVLLAQGKIVKICDFGLARDIMHDSNYVSKGSTFLPVKWMAPESIFDNLYTTLSDVWSYGILLWEIFSLGGTPYPGMMVDSTFYNKIKSGYRMAKPDHATSEVYEIMVKCWNSEPEKRPSFYHLSEIVENLLPGQYKKSYEKIHLDFLKSDHPAVARMRVDSDNAYIGVTYKNEEDKLKDWEGGLDEQRLSADSGYIIPLPDIDPVPEEEDLGKRNRHSSQTSEESAIETGSSSSTFIKREDETIEDIDMMDDIGIDSSDLVEDSFL
notes: platelet-derived growth factor receptor alpha (PDGFRA) with the tumour-derived substitution K385L, made by site-directed mutagenesis; The two tags stand on two separate copies of the receptor (one HA-tagged, one MYC-tagged), co-expressed; The mutation occurs in myxoid glioneuronal tumors; The HA-tagged construct is not described in the methods; source: HEK293T, co-transfected, in lysate (RIPA …)
fold dimerization against the WT receptor (Myc/HA band ratio): ~3 fold
